Among all 270,000 compounds or so, about 620 (0.23%) were called active. The inconclusive results got no clear call from the source; some entries with a clear call stand among them for comparison. The call rests on the fitted dose curve; in most records, active means well fitted inhibition curve with a large enough effect in the polarisation, with a control signal flat (not every such curve was filed as active); inconclusive means small, poorly fitted or top-dose-only effect, or effect the other way, or a change in a side signal; inactive means no such curve, though single readings can be large or run the other way; the % refers to the polarisation. Potencies of inconclusive entries are doubtful fits and often do not repeat. A note “side channel” means that the fit belongs to a control or component signal, not to the main read-out.
biological target: Menin (Homo sapiens) (UniProt O00255); assay: qHTS Assay for Inhibitors Targeting the Menin-MLL Interaction in MLL Related Leukemias: Competition With Texas Red Labeled MLL-derived Mutant Peptide; conditions: fluorescence polarization; series mostly up to 61.6 µM
Potency means the concentration at half of the fitted maximal effect; tags describe the fitted curve by direction and shape or compound fluorescence and quenching.

Sequence of UniProt O00255 (O00255 whole entry, looked up): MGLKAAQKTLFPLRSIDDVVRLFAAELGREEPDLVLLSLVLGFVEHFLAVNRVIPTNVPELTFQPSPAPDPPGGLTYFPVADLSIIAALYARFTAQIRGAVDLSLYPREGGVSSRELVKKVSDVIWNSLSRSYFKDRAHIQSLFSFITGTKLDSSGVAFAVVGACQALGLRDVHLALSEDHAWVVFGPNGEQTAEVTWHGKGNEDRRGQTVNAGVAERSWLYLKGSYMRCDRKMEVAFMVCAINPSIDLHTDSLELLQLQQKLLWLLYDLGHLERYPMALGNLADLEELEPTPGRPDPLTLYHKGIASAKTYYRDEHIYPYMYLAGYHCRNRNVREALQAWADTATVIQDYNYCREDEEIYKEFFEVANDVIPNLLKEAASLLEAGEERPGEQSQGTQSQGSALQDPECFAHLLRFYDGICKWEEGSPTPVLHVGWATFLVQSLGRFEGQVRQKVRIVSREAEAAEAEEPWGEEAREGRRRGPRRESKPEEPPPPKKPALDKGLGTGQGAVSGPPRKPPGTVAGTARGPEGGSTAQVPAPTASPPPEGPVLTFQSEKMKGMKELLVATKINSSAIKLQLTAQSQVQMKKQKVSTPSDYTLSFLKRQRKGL

SMILES | Potency
CSc1ccccc1NC(=S)Nc1ccc(S(N)(=O)=O)cc1 | inactive
Cc1ccc(N2C(=O)CC(SCC(=O)Nc3ccc(S(N)(=O)=O)cc3)C2=O)cc1 (configuration not stated) | inconclusive: 39.8 µM [inhibitor, single point]
Cc1ccc(F)c(NC(=S)Nc2cccc3ccccc23)c1 | inconclusive: 20 µM [quencher, side channel, partial curve]
Cn1c(NC(=O)c2cccc(Cn3cc(Cl)cn3)c2)nc2ccccc21 | inconclusive: 20 µM [inhibitor, single point]
Cc1cc(N)n2ncc(-c3cccc(Br)c3)c2n1 | inconclusive: 15.8 µM [quencher, side channel, partial curve]
COc1ccccc1N1CCN(CCCCNS(=O)(=O)c2cccc3c(N(C)C)cccc23)CC1 | inconclusive: 6.31 µM [fluorescent, side channel, partial curve]
Cc1[nH]c2ccccc2c1C(=O)COC(=O)c1c(-c2ccccc2Cl)noc1C | inconclusive: 17.8 µM [quencher, side channel, partial curve]
COC(=O)c1[nH]c2ccc(Cl)cc2c1NC(=O)Oc1ccccc1 | inconclusive: 35.5 µM [quencher, side channel, single point]
Cc1cc(C)c2c(n1)sc1c(O)cc(=O)[nH]c12 | inactive
C/C(=C\c1cccc(Cl)c1Cl)C(=O)c1c(C)cc(C)[nH]c1=O | inconclusive: 20 µM [fluorescent, side channel, partial curve]
COc1ccc(OCC(=O)c2c[nH]c3ccccc23)cc1 | inconclusive: 22.4 µM [quencher, side channel, partial curve]
COc1ccc([C@]23Cc4ccccc4C(O2)C2=C(O3)C(=O)c3ccccc3C2=O)cc1 | inconclusive: 2.82 µM [quencher, side channel, partial curve]
O=C(NCCCn1ccnc1)/C(=C\c1cccnc1)NC(=O)c1cccc(Br)c1 | inconclusive: 39.8 µM [fluorescent, side channel, single point]
c1cncc(CSc2nnc3ccc(-c4ccco4)nn23)c1 | inconclusive: 35.5 µM [inhibitor, single point]
COc1ccc2oc(=Nc3ccc(C(=O)O)cc3)c(C(=O)NCc3ccco3)cc2c1 | inactive
O=C(Nc1ccccc1)Nc1nnc(SCc2ccc(Cl)cc2)s1 | inconclusive: 31.6 µM [quencher, side channel, single point]
CCC(=O)c1ccc(N2CCN(C(=O)c3ccc(F)cc3)CC2)c(F)c1 | inconclusive: 10 µM [fluorescent, side channel, partial curve]
OCc1cn(-c2ccccc2)nc1-c1ccc(Br)cc1 | inconclusive: 28.2 µM [quencher, side channel, single point]
CSc1nnc(-c2cnccn2)n1C | inactive

SMILES | Potency
Cc1ccc(-c2csc(N(CCO)CCCn3c(C(F)(F)F)nc4cc(C(F)(F)F)ccc43)n2)cc1 | inconclusive: 8.91 µM [quencher, side channel, full curve]
Cc1cc2nc3c(=O)[nH]c(=O)nc-3n(CC(O)C(O)C(O)CO)c2cc1C (configuration not stated) | inactive
Cc1ccc(N(CC(=O)N2CCCCCC2)S(=O)(=O)c2ccccc2)cc1 | inconclusive: 8.91 µM [inhibitor, partial curve, poor fit]
CCn1nnnc1SCC(=O)N1c2ccccc2CCc2ccccc21 | inconclusive: 0.794 µM [inhibitor, full curve]
COc1ccccc1C(=O)NCCc1c(C)[nH]c2c(C)ccc(F)c12 | inconclusive: 39.8 µM [fluorescent, side channel, single point]
CS(=O)(=O)Cc1ccc(C(=O)NCC2(N3CCCCC3)CCCCC2)cc1 | inconclusive: 22.4 µM [quencher, side channel, single point]
Cc1ccc(NC(=S)N2C3CCCC2CC(NC(=O)C2CC2)C3)cc1C (configuration not stated) | inconclusive: 4.47 µM [inhibitor, partial curve]
C/C(=N\Nc1nc(C(C)(C)C)cs1)c1ccc(O)cc1 | inconclusive: 20 µM [quencher, side channel, partial curve]
CCOC(=O)C1C(=O)C=C(C)C(C(=O)OCC)C1c1ccc(OC)cc1 (configuration not stated) | inconclusive: 28.2 µM [fluorescent, side channel, single point]
N#C/C(=C\c1ccc(Sc2ccccc2)o1)c1nc2ccccc2[nH]1 | inconclusive: 28.2 µM [quencher, side channel, partial curve]
CCCCNC(=O)CN1CCN(Cc2ccc3cc(OC)ccc3c2)CC1 | inconclusive: 15.8 µM [inhibitor, partial curve]
COc1ccc(-c2nc3cnc(Nc4cccc(OC)c4)nc3n(Cc3cccs3)c2=O)cc1 | inconclusive: 2 µM [quencher, full curve]
Cc1ccc(-c2nc3cccnc3o2)cc1NC(=O)COc1ccc(C(C)(C)C)cc1 | inconclusive: 3.16 µM [fluorescent, side channel, single point]
CC(=O)Cc1nsc(NC(=O)c2ccc(COc3ccccc3C)o2)n1 | inconclusive: 28.2 µM [quencher, side channel, single point]
CC(=O)Nc1ccc(OCc2cccc3ccccc23)cc1 | inconclusive: 39.8 µM [quencher, side channel, single point]
CC(=O)Nc1ccc(SCC(=O)c2ccc(Br)s2)cc1 | inconclusive: 39.8 µM [quencher, side channel, single point]
CN(C)c1ncnc2c1NC1=C(S2)C(=NCCCC(=O)O)CC(C)(C)C1 | inconclusive: 39.8 µM [inhibitor, single point]
COc1cccc(Cn2cccc(NC(=O)Nc3ccccc3C)c2=O)c1 | inconclusive: 31.6 µM [quencher, side channel, single point]
CCOC(=O)c1sc(NC(=O)Nc2ccccc2)cc1C | inconclusive: 7.94 µM [quencher, side channel, full curve]

SMILES | Potency
CCc1ccc(-n2cccc2/C=C2/C(=N)N3C(=NC2=O)SN=C3S(C)(=O)=O)cc1 | inconclusive: 35.5 µM [quencher, side channel, single point]
O=C(N/N=C/c1sc(N2CCCCC2)nc1-c1cccs1)c1cccnc1 | inconclusive: 17.8 µM [quencher, side channel, partial curve]
C/C(=N\Nc1cccc([N+](=O)[O-])c1)c1cc2ccccc2o1 | inconclusive: 12.6 µM [quencher, side channel, partial curve]
Cc1nc2cc(NC(=O)COc3ccc(C#N)cc3)ccc2n1-c1ccccc1 | inactive
COc1cc(/C=C/c2[nH]c(=O)[nH]c(=O)c2[N+](=O)[O-])cc([N+](=O)[O-])c1O | inconclusive: 28.2 µM [quencher, side channel, single point]
COC1CCCN(Cc2c(C(=O)N3CCc4ccccc4C3)nc3ccc(Cl)cn23)C1 (configuration not stated) | inconclusive: 17.8 µM [inhibitor, partial curve]
O=C(Nc1cccc(Br)c1)c1ccc(Cl)c(S(=O)(=O)N2CCOCC2)c1 | inconclusive: 7.08 µM [quencher, side channel, single point]
Cc1c(Br)c([N+](=O)[O-])nn1CC(=O)Nc1cccc2nonc12 | inconclusive: 28.2 µM [quencher, side channel, partial curve]
COCCCNC(=O)Cn1nnc(-c2ccccc2NC(=O)c2ccc(F)cc2)n1 | inconclusive: 35.5 µM [quencher, side channel, single point]
COCCCNc1nc2c(c(=O)n(Cc3cccc(Br)c3)c(=O)n2C)n1C | inconclusive: 50.1 µM [quencher, side channel, partial curve]
COc1cccc(C(=O)Nc2cccc(-c3nc4ncccc4o3)c2C)c1 | inconclusive: 39.8 µM [fluorescent, side channel, single point]
CC1CCC2CCCCC2N1C(=O)c1cc([N+](=O)[O-])cc([N+](=O)[O-])c1 (configuration not stated) | inconclusive: 7.08 µM [inhibitor, full curve, poor fit]
COc1ccc2cc(C(C)C(=O)O)ccc2c1 (configuration not stated) | inactive
O=S(=O)(NCC(Nc1ccc(Cl)cc1)c1ccccc1)c1ccccc1 (configuration not stated) | inconclusive: 7.94 µM [quencher, side channel, partial curve]
COc1cc(NC(=O)Nc2ccccc2)c(OC)cc1NC(=O)CN1CCCCC1 | inconclusive: 10 µM [quencher, side channel, partial curve]
CCOc1ccc(-c2cc(NC(=O)c3c(F)cccc3F)c(C(=O)O)s2)cc1 | inconclusive: 15.8 µM [quencher, side channel, partial curve, poor fit]
CCOC(=O)C1(P(=O)(c2ccc(Cl)cc2)c2ccc(Cl)cc2)CCC1 | inconclusive: 10 µM [fluorescent, side channel, partial curve]
COc1cc(C(C(=O)NC2CCCCC2)N(C(=O)c2snc(C(N)=O)c2N)c2ccc(C)cc2)ccc1O (configuration not stated) | inactive
Cc1ccc(NC(=O)c2ccccc2NS(=O)(=O)c2ccc(Cl)s2)cc1 | inconclusive: 25.1 µM [quencher, side channel, single point]
